# The source gives no read counts; variants with many changes may rest on few reads.
# B1: LINE1-full (parent)
# chain: UACGUAGGUGGUUUUCCCCUGAUAGUGCUAAGGGGGCCUGGAAGUUUGGACUGGGCAGAGCUCAACACAGCGUGGCAAAGUGGCUGUGGCUAGACUGCCUCUCUGGAUUCCUCGUCACUCAGCAGGGCAUCUCUGAGAGAAAUGCC
# Variants of: B1
# Assay: self-cleavage, relative activity (ratio to wild type); higher = more cleavage; in vitro, sequencing; the parent is a self-cleaving ribozyme
row,Variant,self-cleavage
1,UACGUAGGUGGUUUUCCCCUGAUAGUGCUAAGGGGGCCUGGAAGUAAGGACUGGGCAGAGCUCAACACAGCGUGGCAAAGUAGCUGUGGCUAGACUGCCUCUCUGGAUUCCUCGUCACUCAGCAGGGCAUCUCUGAGAGAAAUGCC,1.52
2,UACGUAGGUGGUUUUCCCCUGAUAGUGCUAAGGGGGCCUGGAAGUAUGGACUGGGCAGAGCACAACACAGCGUGGCAAAGUGGCUGUGGCUAGACUGCCUCUCUGGAUUCCUCGUCACUCAGCGGGGCAUCUCUGAGAGGAAUGCC,0.06
3,UACGUAGGUGGUUUUCCCCUGAUAGUGCUAAGGGGGCCUGGAAGUAUGGACUGGGCAGAGCCCAACACAGCGUGGCGAAGUGGCUGUGGCUAGACUGCCUCUCUGGAUUCCUCGUCACUCAGCAGGGCAUCUCUGAGAGAAAUGCC,0.04
4,UACGUAGGUGGUUUUCCCCUGAUAGUGCUAAGGGGGCCUGGAAGUAUGGACUGGGCAGAGCCCAACACAGCGUGGCAAAGUGGCUGUGGCUAGGCUGCCUCUCUGGAUUCCUCGUCACUCAGCGGGGCAUCUCUGAGAGAAAUGCC,0
5,UACGUAGGUGGUUUUCCCCUGAUAGUGCUAAGGGGGCCUGGAAGUAUGGACUGGGCAGAGCCCAACACAGCGUGGCAAAGUGGCUGUGGCUAGACUGCCUCUCUGGAUUCCUCGUCACUCAGCAGGGCAUCUCUGAGGGAAAUGCC,0.05
6,UACGUAGGUGGUUUUCCCCUGAUAGUGCUAAGGGGGCCUGGAAGUAUGGACUGGGCAGAGCUCAACACAGCGCGGCAGAGUAGCUGUGGCUAGACUGCCUCUCUGGGUUCCUCGUCACUCAGCAGGGCAUCUCUGAGAGAAAUGCC,1.19
7,UACGUAGGUGGUUUUCCCCUGAUAGUGCUAAGGGGGCCUGGAAGUAUGGACUGGGCAGAGCUCAACACAGCGUGGCAAAGUGGCAGUGGCUAGACUGCCUCUCUGGAUUCCUCGUCACUCAGCAGGGCAUCUCUGAGAGAGAUGCC,0.08
8,UACGUAGGUGGUUUUCCCCUGAUAGUGCUAAGGGGGCCUGGAAGUAUGGACUGGGCAGAGCUCAACACAGCGUGGCAAAGUGGCUGUGGCUAGACUGCCACUCUGGAUUCCUCAUCACUCAGCAGGGCAUCUCUGAGAGAAAUGCC,0.65
9,UACGUAGGUGGUUUUCCCCUGAUAGUGCUAAGGGGGCCUGGAAGUCUGGGCUGGGCAGAGCUCAACUCAGCGUGGCAAAGUGGCUGUAGCUAGACUGCCUCUCUGGAUUCCUCGUCACUCAGCAGGGCAUCUCUGAGAGAAAUGCC,0.08
10,UACGUAGGUGGUUUUCCCCUGAUAGUGCUAAGGGGGCCUGGAAGUCUGGGCUGGGCAGAGCUCAACACAGCGUGGCAAAGUGGCUGUGGCUAGACUGCCUCUCUGGAUUCCUCGUCUCUCAGCAGGGCAUCUCUGAGAGAAAUGCC,1.26
11,UACGUAGGUGGUUUUCCCCUGAUAGUGCUAAGGGGGCCUGGAAGUCUGGGCUGGGCAGAGCUCAACACAGCGUGGCAAAGUGGCUGUGGCUAGACUGCCUCUCUGGAUUCCUCGUCACUCAGCGGGUCAUCUCUGAGAGAAAUGCC,0
12,UACGUAGGUGGUUUUCCCCUGAUAGUGCUAAGGGGGCCUGGAAGUCUGGGCUGGGCAGAGCUCAACACAGCGUGGCAAAGUGGCUGUGGCUAGACUGCCUCUCUGGAUUCCUCCUCACUCAGCAGGGCAUCUCUGAGAGAAAUGCC,2.12
13,UACGUAGGUGGUUUUCCCCUGAUAGUGCUAAGGGGGCCUGGAAGUCUGGUCUGGGCAGACCUCAACACAGCGUGGCAAAGUGGCUGUGGCUAGACUGCCUCUCUGGACUCCUCGUCACUCAGCAGGGUAUCUCUGAGAGAAACGCC,0.01
14,UACGUAGGUGGUUUUCCCCUGAUAGUGCUAAGGGGGCCUGGAAGUCUGGACUGGGCUGAGCUCAACACAGCGUGGCAAAGUGGCUGUGGCUAGACUGCCUCUCUGGAUUCCUCGCCACUCAGCAGGGCAUCUCUGAGAGAAAUGCC,0.75
15,UACGUAGGUGGUUUUCCCCUGAUAGUGCUAAGGGGGCCUGGAAGUCUGGACUGGGCAGGGCUCAACACAGCGUGGCAAAGUGGCUGUGGCUAGACUGCCUCUCUGGAUUCCUCGUCACUCAGCAGGGCAUCUCUGAGAGAAACGCC,0
16,UACGUAGGUGGUUUUCCCCUGAUAGUGCUAAGGGGGCCUGGAAGUCUGGACUGGGCAGUGCUCAACACAGCGUGGCAAAGUGGCUGUGGCUAGACUGCCUCUCUGGAUCCCUCGUCACUCAGCGGGGCAUCUCUGAGAGAAAUGCC,0.99
17,UACGUAGGUGGUUUUCCCCUGAUAGUGCUAAGGGGGCCUGGAAGUCUGGACUGGGCAGAGCUCGACACAGCGUGGCAAAGUGGCUGUGGCUAGACUGCCUCUCUGGAUUCCUCGUCACUCAGCAGGGCAUCUCUGAGAGGAAUGCC,0.23
18,UACGUAGGUGGUUUUCCCCUGAUAGUGCUAAGGGGGCCUGGAAGUCUGGACUGGGCAGAGCUCGACACAGCGUGGCAAAGUGGCUGAGGCUAGACUGCCUCUCUGGAUUCCUCGUCGCUCAGCAGGGCAUCUCUAAGAGGAAUGCC,0.18
19,UACGUAGGUGGUUUUCCCCUGAUAGUGCUAAGGGGGCCUGGAAGUCUGGACUGGGCAGAGCUCUACACAGCGUGGCAAAGUGGCUGUGGCUAAACUGCCUCUCUGGAUUCCUCGUCACUCAGCAGGGCAUCUCUGAGAGAAAUGCC,0.02
20,UACGUAGGUGGUUUUCCCCUGAUAGUGCUAAGGGGGCCUGGAAGUCUGGACUGGGCAGAGCUCUACACAGCGAGGCAAAGUGGCUGUGGCUAGACUGCCUCUCUGGAUUCCUCGUCACCCAGCAGGGCAUCUCUGAGAGAAAUGCC,0.81

row,Variant,self-cleavage
1,UACGUAGGUGGUUUUCCCCUGAUAGUGCUAAGGGGGCCUGGAAGUCUGGACUGGGCAGAGCUCAGCACAGCGUGGCAGAGUGGCUGUGGCUAGACUGCCUCUCUGGAUUCCUCGUCACUCAGCAGGGCAUCUCUGAGAGAAAUGCC,0.09
2,UACGUAGGUGGUUUUCCCCUGAUAGUGCUAAGGGGGCCUGGAAGUCUGGACUGGGCAGAGCUCAACACGGCGUGGCAUAGCGGCUGUGGCUAGACUGCCUCUCUGGAUUCCUCGUCACUCAGCAGGGCAUCUCUGAGAGAAAUGCC,1.84
3,UACGUAGGUGGUUUUCCCCUGAUAGUGCUAAGGGGGCCUGGAAGUCUGGACUGGGCAGAGCUCAACACGGCGUGGCAAAGUGGCUGUGGCUAGACUGCCUCUCUGGAUUCCUCGUCACUCAGCAGGGCAUCUCUGAGAGAAGUGCC,0.34
4,UACGUAGGUGGUUUUCCCCUGAUAGUGCUAAGGGGGCCUGGAAGUCUGGACUGGGCAGAGCUCAACACGGCGUGGCAAAGUGGCUGUGGCUAGACUGCCUCUCUGGAUUCCUCAUCACUCAGCAGGGCAUCUCUGAGAGAAAUGCC,0.76
5,UACGUAGGUGGUUUUCCCCUGAUAGUGCUAAGGGGGCCUGGAAGUCUGGACUGGGCAGAGCUCAACACUGAGUGGCAAAGUGGCUGUGGCUAGACUGCCUCUCUGGAUUCCUCGUCACUCAGCAGGGCAUCUCUGAGAGAAAUGCC,0.02
6,UACGUAGGUGGUUUUCCCCUGAUAGUGCUAAGGGGGCCUGGAAGUCUGGACUGGGCAGAGCUCAACACUGCGGGGCAAAGUGGCUGUGGCUAGACUGCCUCUCUGGAUUCCUCGUCACUCAGCAGGGCAUCUCUGAGAGAAAUGCC,0.16
7,UACGUAGGUGGUUUUCCCCUGAUAGUGCUAAGGGGGCCUGGAAGUCUGGACUGGGCAGAGCUCAACACUGCGUGGCAAAGUGGCUGUGGCUAGACUGCCACUCUGGAUUCCUCGUCACUCAGCAGGGCAUCUCUGAGAGAAAUGCC,0.09
8,UACGUAGGUGGUUUUCCCCUGAUAGUGCUAAGGGGGCCUGGAAGUCUGGACUGGGCAGAGCUCAACACAGCGUGGCGAAGUGGCUGUGGCUGGACUGCCUCUCUGGAUUCCUCGUCACUCAGCAGGGCAUCUCUGAGAGAAAUGCC,0
9,UACGUAGGUGGUUUUCCCCUGAUAGUGCUAAGGGGGCCUGGAAGUCUGGACUGGGCAGAGCUCAACACAGCGUGGCGAAGUGGCUGUGGCCAGACUGCCUCUCUGGAUUCCUCGUCACUCAGCAGGGCAUCUCUGAGAGAAAUGCC,0.45
10,UACGUAGGUGGUUUUCCCCUGAUAGUGCUAAGGGGGCCUGGAAGUCUGGACUGGGCAGAGCUCAACACAGCGUGGCGAAGUGGCUGUGGCUAGACUGCCUCUCUGGAUACCUCGUCACUCAGCAGAGCAUCUCUGAGAGAAAUGCC,2.15
11,UACGUAGGUGGUUUUCCCCUGAUAGUGCUAAGGGGGCCUGGAAGUCUGGACUGGGCAGAGCUCAACACAGCGUGGCUAAGUGGCUGAGGCUAGACUGCCUCUCUGGAUUCCUCGUCACUCAGCAGGCCAUCUCUGAGAGAGAUGCC,0.07
12,UACGUAGGUGGUUUUCCCCUGAUAGUGCUAAGGGGGCCUGGAAGUCUGGACUGGGCAGAGCUCAACACAGCGUGGCAACGUGGCUGUGGCUAGACUGCCUCUCAGGAUUCCUCGUCACUCAGCAGGGCAUCUCUGAGAGAAAUGCC,1.84
13,UACGUAGGUGGUUUUCCCCUGAUAGUGCUAAGGGGGCCUGGAAGUCUGGACUGGGCAGAGCUCAACACAGCGUGGCAAGGUGGCUGUGGCUAGACAGCCUCUCUGGAUUCCUCGUCACUCAGCAGGGCAUCUCUGAGAGAAAUGCC,0.1
14,UACGUAGGUGGUUUUCCCCUGAUAGUGCUAAGGGGGCCUGGAAGUCUGGACUGGGCAGAGCUCAACACAGCGUGGCAAGGUGGCUGUGGCUAGACUGCCUCUCUGGACUCCUCGUCACUCAGCAGGGCAUCUCUGAGAGAAAUGCC,0.42
15,UACGUAGGUGGUUUUCCCCUGAUAGUGCUAAGGGGGCCUGGAAGUCUGGACUGGGCAGAGCUCAACACAGCGUGGCAAUGUGGCUGUGGCUAGACUGCCUCUCUGGAUUCCUCGUCACUCAGCAGGGCAUCUCUGAGAGGAAUGCC,0.87
16,UACGUAGGUGGUUUUCCCCUGAUAGUGCUAAGGGGGCCUGGAAGUCUGGACUGGGCAGAGCUCAACACAGCGUGGCAAAGUGGCUGUGGCUAGUCUGCCUCUCUGGAUUCCUCGUCACUCGGCAGGGCAUCUCUGAGUGAAAUGCC,0.54
17,UACGUAGGUGGUUUUCCCCUGAUAGUGCUAAGGGGGCCUGGAAGUCUGGACUGGGCAGAGCUCAACACAGCGUGGCAAAGUGGCUGUGGCUAGACUGCCUCUCUGGGCUCCUCGUCACUCAGCAGGGCAUCUCUGAGAGAAAUGCC,0
18,UACGUAGGUGGUUUUCCCCUGAUAGUGCUAAGGGGGCCUGGAAGUCUGGACUGGGCAGAGCUCAACACAGCGUGGCAAAGUGGCUGUGGCUAGACUGCCUCUCUGGGUUCCUCGACACUCAGCAGGGCAUCUCUGAGAGAAAUGCC,1.47
19,UACGUAGGUGGUUUUCCCCUGAUAGUGCUAAGGGGGCCUGGAAGUCUGGACUGGGCAGAGCUCAACACAGCGUGGCAAAGUGGCUGUGGCUAGACUGCCUCUCUGGGUUCCUCGUCACUCAGCAGGGCAUCUCAGAGAGAAAUGCC,1.87

# Reference: the RNAGym collection of RNA variant scans (doi:10.7554/elife.90254)
